This passage reports binding signal results from paper PMC7819943, “Rice protein-binding microarrays: a tool to detect cis-acting elements near promoter regions in rice”.

Some of the results follow.

The assay deals with T1, OsWOX13 (Oryza sativa, UniProt Q5QMM3 1-267).
T1 sequence: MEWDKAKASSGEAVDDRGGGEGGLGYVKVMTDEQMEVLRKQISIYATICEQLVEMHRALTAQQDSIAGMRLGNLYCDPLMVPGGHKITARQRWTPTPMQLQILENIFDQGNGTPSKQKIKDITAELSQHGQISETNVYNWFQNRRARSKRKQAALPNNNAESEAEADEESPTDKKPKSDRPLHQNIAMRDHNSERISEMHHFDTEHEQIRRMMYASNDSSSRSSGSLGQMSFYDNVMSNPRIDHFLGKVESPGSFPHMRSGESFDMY
The assay can be described thus: protein-binding microarray (RPBM); PBS, 2% BSA, 51.3 ng/ul salmon testes DNA, 50 uM zinc acetate, 200 nM TF, 25 C, 1 h; high values mean tight binding. The settings on record: protein: recombinant; tags: N-terminal polyhistidine and DsRed monomer fusion (pET32a); label: CyDye5-dUTP incorporated in the synthesized complementary strand; 3' TTTTT single-stranded linker to array surface; dsDNA, one strand shown. A digest of the protocol:
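Polyhistidine-tagged DsRed fusions of transcription factors, joined at the N-terminus, were expressed in E. coli BL21-CodonPlus and isolated on Ni–NTA. They were incubated at 200 nM for 1 h at 25 °C on a custom Agilent array, double-stranded and BSA-blocked, in PBS with 2% BSA, salmon testes DNA and 50 µM zinc acetate. The binding signal is per-feature fluorescence intensity (arbitrary units) read on an Axon 4000B scanner after washing.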
Regarding “TGATTCAAATGATTGAAGCTTTCCAAAACCTATGAAATTCCGGAGTCACCTAGTGCAG”, the binding signal is 17700 fluorescence intensity (a.u.).

With “ACATTGCTTAATTAAGTCTATGTTAAATGGTATTGGATCACGGAGTCACCTAGTGCAG”, the binding signal is 15800 fluorescence intensity (a.u.).

Take “TACCTGATCAACTTTGACTAATTTTATCCATGTCATTCAGCGGAGTCACCTAGTGCAG”: the binding signal is 11500 fluorescence intensity (a.u.).

“TACATGTTAACTTTACTGTGAATGAATAGCATTGAGCTTCCGGAGTCACCTAGTGCAG”: the binding signal was 3200 fluorescence intensity (a.u.).

In the case of “TCATCTTAATGTAATTAATTGAGTCTAAATAAAGCTTCCACGGAGTCACCTAGTGCAG”, the binding signal was 16400 fluorescence intensity (a.u.).

For “AAAACTTGAAATTTATATATAAACTTTCATGTTGGGTAAGCGGAGTCACCTAGTGCAG”, the binding signal is 6360 fluorescence intensity (a.u.).

In the case of “GTTGTGTTACATGATTGTCACTTTGGGCCATTAAACAACGCGGAGTCACCTAGTGCAG”, the binding signal was 5690 fluorescence intensity (a.u.).

In the case of “AATAAATTACTAATAGTTTCGCACGCGCACTAAAGACATTCGGAGTCACCTAGTGCAG”, the binding signal was 19700 fluorescence intensity (a.u.).

As to “ACTAACCAATCACAAGCTCTGCCCATTCACTTCCTCGCTTCGGAGTCACCTAGTGCAG”, the binding signal is 11200 fluorescence intensity (a.u.).

As for “TTTTGTTTGATTTGGTTATTGGCGAATGGCGATGTTGAACCGGAGTCACCTAGTGCAG”, the binding signal was 6260 fluorescence intensity (a.u.).

As for “TCAAATATGACTAAATTAGTAGTTAAGTAGTATGGGAGAACGGAGTCACCTAGTGCAG”, the binding signal was 13400 fluorescence intensity (a.u.).

For “TATACGGCGTAAATCCGGATGATTGATGCTAGGGTATGTCCGGAGTCACCTAGTGCAG”, the binding signal is 8690 fluorescence intensity (a.u.).

In the case of “CAACAACTGTAATTTACTGCTTGCAGTGCTGAGTGTCTCCCGGAGTCACCTAGTGCAG”, the binding signal is 4360 fluorescence intensity (a.u.).

On to “CATATTAGATTGTAACATTTTGGAACAGATGGAGTAATAGCGGAGTCACCTAGTGCAG”, for which the binding signal is 8490 fluorescence intensity (a.u.).

On to “CGCCTCTCGATTGATTCCCCGAGCCGAGACGAGACGAGACCGGAGTCACCTAGTGCAG”, for which the binding signal was 4140 fluorescence intensity (a.u.).

Consider “TATGATTTTACATGAAACTACGACCATAACCCGGTGAAATCGGAGTCACCTAGTGCAG”, for which the binding signal was 6110 fluorescence intensity (a.u.).

For “TTTTCACTGTGATTACCACTGGGTAACGGTGATACTCCTACGGAGTCACCTAGTGCAG”, the binding signal is 3870 fluorescence intensity (a.u.).

With “TCTCTAATTAATAAATATGCAATAATAACATACCCAAGCTCGGAGTCACCTAGTGCAG”, the binding signal was 18100 fluorescence intensity (a.u.).

Take “TGATTCCCTATCAAAATTTAAATTTGGTGTAGTTTTGTAACGGAGTCACCTAGTGCAG”: the binding signal was 8870 fluorescence intensity (a.u.).

Regarding “GGCATTGACGAGCACCTTAGAGTTGTGGTGGACCAAGGCGCGGAGTCACCTAGTGCAG”, the binding signal is 8690 fluorescence intensity (a.u.).

With “CTCTGAATATAAATTGATCGGTAGTTAACAGGCACCGGCCCGGAGTCACCTAGTGCAG”, the binding signal is 23900 fluorescence intensity (a.u.).

In the case of “CTGGAAATTAAACAGGGCCTAAGTACGTATGTGTTGTAAGCGGAGTCACCTAGTGCAG”, the binding signal was 10200 fluorescence intensity (a.u.).

As to “CTATAATTTCTGGTTACGGTGGTGACAAGTCATGTGGGCTCGGAGTCACCTAGTGCAG”, the binding signal was 13900 fluorescence intensity (a.u.).

Consider “GGAGGGGACCTTCTTAATTAATTACACAGCATCTACTTTGCGGAGTCACCTAGTGCAG”, for which the binding signal was 4150 fluorescence intensity (a.u.).

As to “AAGCCAATTTATCCGAGTCATTAGTTCAACTTCTACCACACGGAGTCACCTAGTGCAG”, the binding signal was 4260 fluorescence intensity (a.u.).

As to “ATCATGCTGTGATTAATTGTTATGCATATGTCAGTGTATGCGGAGTCACCTAGTGCAG”, the binding signal was 24400 fluorescence intensity (a.u.).

In the case of “CCTTCGTTTATTTTCTAATCTCAATCCTACTTCTATTTTCCGGAGTCACCTAGTGCAG”, the binding signal is 3760 fluorescence intensity (a.u.).

On to “GGAGCAATCACTGGCACACTGCTCTCTAACACACACACACCGGAGTCACCTAGTGCAG”, for which the binding signal is 10300 fluorescence intensity (a.u.).

For “ATATAGACTACTTACAAATCTAATTACATAAACGAAAGCTCGGAGTCACCTAGTGCAG”, the binding signal was 3690 fluorescence intensity (a.u.).

For the sequence “AGGTGTTGATTTTGGGTGGCGGGCCCAATCGGATAGGCCACGGAGTCACCTAGTGCAG”, the binding signal is 3770 fluorescence intensity (a.u.).

“AATGATTAGAATTTGGTAAAGTAGAGGACAAAGATAAAATCGGAGTCACCTAGTGCAG”: the binding signal was 7910 fluorescence intensity (a.u.).

In the case of “TTTTAAATTTCATTATATAATGATTAATTTGGGAATGAGGCGGAGTCACCTAGTGCAG”, the binding signal was 30800 fluorescence intensity (a.u.).

In the case of “AACAACTTTGATCATTATTTAAATTGTTAACAAATATATGCGGAGTCACCTAGTGCAG”, the binding signal is 10800 fluorescence intensity (a.u.).

Take “TATGATGACACAATTAACCGTAATTTCTAAACCAAATAATCGGAGTCACCTAGTGCAG”: the binding signal is 21500 fluorescence intensity (a.u.).

As to “ATGCCATATCTTGCAAGATTGATGAGTAGCCAATTATTACCGGAGTCACCTAGTGCAG”, the binding signal is 6030 fluorescence intensity (a.u.).

“TCCACATCATAAATTGTTGAGAGACTGCAAATCGTCTAGCCGGAGTCACCTAGTGCAG”: the binding signal was 3640 fluorescence intensity (a.u.).

On to “GCAGCTGCACTAATTGACATATGCATGCAGCAGCTTCAGTCGGAGTCACCTAGTGCAG”, for which the binding signal is 19000 fluorescence intensity (a.u.).

For “CAATTAATAAATAAATTTGATACCTCAAATAAATAAGTCACGGAGTCACCTAGTGCAG”, the binding signal was 7780 fluorescence intensity (a.u.).

For the sequence “ACTAATCTGATTGTGTCACTTGTGCGATTGATGGAGTTCACGGAGTCACCTAGTGCAG”, the binding signal is 23900 fluorescence intensity (a.u.).

For “TTAATCACATGTTAATTAAATGTGTGGGTTAATTGTTGTTCGGAGTCACCTAGTGCAG”, the binding signal is 36100 fluorescence intensity (a.u.).

Consider “CCCTAAATTTCCGCGAAATCAGCAACCGAACACAGATTAGCGGAGTCACCTAGTGCAG”, for which the binding signal is 7110 fluorescence intensity (a.u.).

On to “CATATTGATGCTAATGAATCTAGACATATATACCTATCTACGGAGTCACCTAGTGCAG”, for which the binding signal is 3520 fluorescence intensity (a.u.).

For “CTGAAATTGTACACAAACAGTTTGGAATTTGGAGCAAGCACGGAGTCACCTAGTGCAG”, the binding signal is 8330 fluorescence intensity (a.u.).

With “CTAAATTGAATCTATCCACTTTGCCTCCTAAACTCACCCCCGGAGTCACCTAGTGCAG”, the binding signal was 54600 fluorescence intensity (a.u.).

Regarding “CAAATTACGTATGTAAATTGCGAGACGAATCTATTAAGCACGGAGTCACCTAGTGCAG”, the binding signal was 27200 fluorescence intensity (a.u.).

Consider “TAGTGACTGATTAAATTAATTACCACCCCATCCATTAACTCGGAGTCACCTAGTGCAG”, for which the binding signal is 42800 fluorescence intensity (a.u.).

As to “ACTATTATATTGATCAATTGATTACATAATTCACGTGTCGCGGAGTCACCTAGTGCAG”, the binding signal was 43700 fluorescence intensity (a.u.).

“ACATTTAATGATGAGCTTCATTCATTCTCATCTTGTTTGGCGGAGTCACCTAGTGCAG”: the binding signal was 7730 fluorescence intensity (a.u.).

Regarding “CCTAGATTTGACACGGGTGCTCGCATTTACGGCTAATTATCGGAGTCACCTAGTGCAG”, the binding signal was 15000 fluorescence intensity (a.u.).

As to “TTAATTGATTTGGAAATCCTCTAGTTATCTGGATTAGTTTCGGAGTCACCTAGTGCAG”, the binding signal is 37300 fluorescence intensity (a.u.).

As to “TTCTAGGATTTTCTCTAATTTATTAGAGCACCACGTGTCGCGGAGTCACCTAGTGCAG”, the binding signal is 5320 fluorescence intensity (a.u.).

For “GATCACTTCAATTAAGCAGTTGTTGTACTTAGAGCTAAGACGGAGTCACCTAGTGCAG”, the binding signal is 4300 fluorescence intensity (a.u.).

Consider “TCCTTAAATCAACATCAATTCGGCTTGTTGTTATCATCTACGGAGTCACCTAGTGCAG”, for which the binding signal is 7560 fluorescence intensity (a.u.).

As for “TTTTGATTGCCAATAAGGTTTTCATCGGGGTTTCAGCCGACGGAGTCACCTAGTGCAG”, the binding signal was 34800 fluorescence intensity (a.u.).
